The text below walks through data of PMC9530240 (2022).

For test [1], the target named is serum albumin. The experiment in a line: 60 °C.
In test [2] the target is serum albumin. Put plainly: 50 °C.

B1: recombinant β2-microglobulin monomer with an additional methionine residue at the N terminus (natural protein)
chain: not shown
modifications: uniformly 15N-labelled in the NMR experiment only
What is called Kd is the constant that tells how readily two partners part at equilibrium. Higher therefore signals a looser complex. With B1, the Kd amounted to 672 µM in the test with serum albumin [1] and 395 µM with serum albumin [2].
